Values of other authors, collected in US4456597A.

Legend:
[1] = system: IF induction; conditions: cited from earlier work; for IF inducing activity: constituents of Carthamus plants
[2] = 56 °C, 5 hours; cited from earlier work

Row | Molecule | IF inducing activity [1] | inactivation of IF-inducing activity on heating [2] | IF-inducing activity ([1]; background) | IF-inducing activity ([1]; described in the literatures)
1 | O=C(/C=C/c1ccc(O)cc1)C1=C(O)[C@](O)([C@@H]2O[C@H](CO)[C@@H](O)[C@H](O)[C@H]2O)C(O)=C(/C=C2/C(=O)C(C(=O)/C=C/c3ccc(O)cc3)=C(O)[C@@](O)([C@@H]3O[C@H](CO)[C@@H](O)[C@H](O)[C@H]3O)C2=O)C1=O [carthamine] | no IF inducing activity | – | – | –
2 | carthamone | no IF inducing activity | – | – | –
3 | neocarthamine | no IF inducing activity | – | – | –
4 | phytohemagglutinin | – | inactivated | extremely low IF-inducing activity | very weak IF-inducing activity
5 | pokeweed mitogen | – | inactivated | extremely low IF-inducing activity | very weak IF-inducing activity

Where two headings read alike, the source gives them in different places.
